Article PMC9911399, “Two distinct binding modes provide the RNA-binding protein RbFox with extraordinary sequence specificity”
Residue numbers refer to the chain shown, from its start. The list shows a part of the results.

T1: RBFOX1 RRM (Homo sapiens, UniProt Q9NWB1 109-208)
T1 sequence: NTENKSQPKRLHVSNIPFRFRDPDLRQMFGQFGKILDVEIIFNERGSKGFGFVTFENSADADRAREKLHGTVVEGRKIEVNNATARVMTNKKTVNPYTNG

B1: GCUACGG (DNA:RNA)
RNA: GGGAGACCGGAAUUCAGAUUGUCCGCUACGGUUAAAUCCCGUCGUAGCCACCA
DNA 1: CAATCTGAATTCCGGTCTCCC
DNA 2: TGGTGGCTACGACGGGATT
B2: CUAAAGC (DNA:RNA)
RNA: B1 RNA with G25C, C26U, U27A, C29A, G31C
DNA 1: CAATCTGAATTCCGGTCTCCC
DNA 2: TGGTGGCTACGACGGGATT
B3: CCGCCUC (DNA:RNA)
RNA: B1 RNA with G25C, U27G, A28C, G30U, G31C
DNA 1: CAATCTGAATTCCGGTCTCCC
DNA 2: TGGTGGCTACGACGGGATT
B4: AACGCGG (DNA:RNA)
RNA: B1 RNA with G25A, C26A, U27C, A28G
DNA 1: CAATCTGAATTCCGGTCTCCC
DNA 2: TGGTGGCTACGACGGGATT
B5: UCCGAGC (DNA:RNA)
RNA: B1 RNA with G25U, U27C, A28G, C29A, G31C
DNA 1: CAATCTGAATTCCGGTCTCCC
DNA 2: TGGTGGCTACGACGGGATT
B6: ACGUCAA (DNA:RNA)
RNA: B1 RNA with G25A, U27G, A28U, G30A, G31A
DNA 1: CAATCTGAATTCCGGTCTCCC
DNA 2: TGGTGGCTACGACGGGATT
B7: UAUGAGU (DNA:RNA)
RNA: B1 RNA with G25U, C26A, A28G, C29A, G31U
DNA 1: CAATCTGAATTCCGGTCTCCC
DNA 2: TGGTGGCTACGACGGGATT
B8: CGGUACU (DNA:RNA)
RNA: GGGAGACCGGAAUUCAGAUUGUCCCGGUACUUUAAAUCCCGUCGUAGCCACCA
DNA 1: CAATCTGAATTCCGGTCTCCC
DNA 2: TGGTGGCTACGACGGGATT
B9: CCUCGAA (DNA:RNA)
RNA: B1 RNA with G25C, A28C, C29G, G30A, G31A
DNA 1: CAATCTGAATTCCGGTCTCCC
DNA 2: TGGTGGCTACGACGGGATT
B10: CAUUAAG (DNA:RNA)
RNA: B8 RNA with G26A, G27U, C30A, U31G
DNA 1: CAATCTGAATTCCGGTCTCCC
DNA 2: TGGTGGCTACGACGGGATT
B11: AUAAUCG (DNA:RNA)
RNA: B1 RNA with G25A, C26U, U27A, C29U, G30C
DNA 1: CAATCTGAATTCCGGTCTCCC
DNA 2: TGGTGGCTACGACGGGATT
B12: AGGUACU (DNA:RNA)
RNA: B8 RNA with C25A
DNA 1: CAATCTGAATTCCGGTCTCCC
DNA 2: TGGTGGCTACGACGGGATT
B13: AAGCCGC (DNA:RNA)
RNA: B1 RNA with G25A, C26A, U27G, A28C, G31C
DNA 1: CAATCTGAATTCCGGTCTCCC
DNA 2: TGGTGGCTACGACGGGATT
B14: AAAUAAG (DNA:RNA)
RNA: B8 RNA with C25A, G26A, G27A, C30A, U31G
DNA 1: CAATCTGAATTCCGGTCTCCC
DNA 2: TGGTGGCTACGACGGGATT
B15: GUCUCUC (DNA:RNA)
RNA: B1 RNA with C26U, U27C, A28U, G30U, G31C
DNA 1: CAATCTGAATTCCGGTCTCCC
DNA 2: TGGTGGCTACGACGGGATT
B16: UCUUGCC (DNA:RNA)
RNA: B8 RNA with C25U, G26C, G27U, A29G, U31C
DNA 1: CAATCTGAATTCCGGTCTCCC
DNA 2: TGGTGGCTACGACGGGATT
B17: CUUCUAC (DNA:RNA)
RNA: B8 RNA with G26U, G27U, U28C, A29U, C30A, U31C
DNA 1: CAATCTGAATTCCGGTCTCCC
DNA 2: TGGTGGCTACGACGGGATT
B18: CACAAGG (DNA:RNA)
RNA: B1 RNA with G25C, C26A, U27C, C29A
DNA 1: CAATCTGAATTCCGGTCTCCC
DNA 2: TGGTGGCTACGACGGGATT
B19: GGAGGAA (DNA:RNA)
RNA: B8 RNA with C25G, G27A, U28G, A29G, C30A, U31A
DNA 1: CAATCTGAATTCCGGTCTCCC
DNA 2: TGGTGGCTACGACGGGATT
B20: AGUGUUA (DNA:RNA)
RNA: B8 RNA with C25A, G27U, U28G, A29U, C30U, U31A
DNA 1: CAATCTGAATTCCGGTCTCCC
DNA 2: TGGTGGCTACGACGGGATT
B21: UGCGACG (DNA:RNA)
RNA: B8 RNA with C25U, G27C, U28G, U31G
DNA 1: CAATCTGAATTCCGGTCTCCC
DNA 2: TGGTGGCTACGACGGGATT
B22: ACAGUCU (DNA:RNA)
RNA: B8 RNA with C25A, G26C, G27A, U28G, A29U
DNA 1: CAATCTGAATTCCGGTCTCCC
DNA 2: TGGTGGCTACGACGGGATT
B23: GUUUUAU (DNA:RNA)
RNA: B8 RNA with C25G, G26U, G27U, A29U, C30A
DNA 1: CAATCTGAATTCCGGTCTCCC
DNA 2: TGGTGGCTACGACGGGATT
B24: GAUCUCG (DNA:RNA)
RNA: B1 RNA with C26A, A28C, C29U, G30C
DNA 1: CAATCTGAATTCCGGTCTCCC
DNA 2: TGGTGGCTACGACGGGATT
B25: UAUCUAU (DNA:RNA)
RNA: B8 RNA with C25U, G26A, G27U, U28C, A29U, C30A
DNA 1: CAATCTGAATTCCGGTCTCCC
DNA 2: TGGTGGCTACGACGGGATT
B26: CCCACUU (DNA:RNA)
RNA: B1 RNA with G25C, U27C, G30U, G31U
DNA 1: CAATCTGAATTCCGGTCTCCC
DNA 2: TGGTGGCTACGACGGGATT
B27: GGAAGGG (DNA:RNA)
RNA: B1 RNA with C26G, U27A, C29G
DNA 1: CAATCTGAATTCCGGTCTCCC
DNA 2: TGGTGGCTACGACGGGATT
B28: GCGUUUU (DNA:RNA)
RNA: B8 RNA with C25G, G26C, A29U, C30U
DNA 1: CAATCTGAATTCCGGTCTCCC
DNA 2: TGGTGGCTACGACGGGATT
B29: GAGGUGU (DNA:RNA)
RNA: B8 RNA with C25G, G26A, U28G, A29U, C30G
DNA 1: CAATCTGAATTCCGGTCTCCC
DNA 2: TGGTGGCTACGACGGGATT
B30: UUUGAAC (DNA:RNA)
RNA: B8 RNA with C25U, G26U, G27U, U28G, C30A, U31C
DNA 1: CAATCTGAATTCCGGTCTCCC
DNA 2: TGGTGGCTACGACGGGATT
B31: ACUGACU (DNA:RNA)
RNA: B8 RNA with C25A, G26C, G27U, U28G
DNA 1: CAATCTGAATTCCGGTCTCCC
DNA 2: TGGTGGCTACGACGGGATT

Target: T1, RBFOX1 RRM
Experiment: EMSA; HiTS-Eq, 1 nM pool, 10 min; buffer printed only for the single-RNA assays: 10 mM Tris pH 7.5, 150 mM NaCl, 3.4 mM EDTA, 0.001% NP-40, 30 C
Conditions: tags: His6 N-terminal (pET28a); label: 5' 32P
Method in brief: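 These values rest on relative association constants, computed from read-count changes of each RNA species versus the control reaction and normalised to the cognate motif. Reads came from free RNA recovered by 8% native PAGE after purified RbFox RRM (wild type or mutant) at increasing concentrations was equilibrated for 10 min in 50 µL with 1 nM of a 5′-radiolabelled pool with 7 randomized nucleotides and DNA-annealed flanks.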

Row | Binder | binding signal
1 | B1 | 0.00939 KA relative to UGCAUGU
2 | B2 | 0.00566 KA relative to UGCAUGU
3 | B3 | 0.0225 KA relative to UGCAUGU
4 | B4 | 0.00805 KA relative to UGCAUGU
5 | B5 | 0.00748 KA relative to UGCAUGU
6 | B6 | 0.000907 KA relative to UGCAUGU
7 | B7 | 0.0133 KA relative to UGCAUGU
8 | B8 | 0.00991 KA relative to UGCAUGU
9 | B9 | 0.00977 KA relative to UGCAUGU
10 | B10 | 0.00833 KA relative to UGCAUGU
11 | B11 | 0.00196 KA relative to UGCAUGU
12 | B12 | 0.00602 KA relative to UGCAUGU
13 | B13 | 0.00379 KA relative to UGCAUGU
14 | B14 | 0.00417 KA relative to UGCAUGU
15 | B15 | 0.00726 KA relative to UGCAUGU
16 | B16 | 0.0152 KA relative to UGCAUGU

Row | Binder | binding signal
17 | B17 | 0.00182 KA relative to UGCAUGU
18 | B18 | 0.00364 KA relative to UGCAUGU
19 | B19 | 0.0141 KA relative to UGCAUGU
20 | B20 | 0.00766 KA relative to UGCAUGU
21 | B21 | 0.0138 KA relative to UGCAUGU
22 | B22 | 0.00331 KA relative to UGCAUGU
23 | B23 | 0.0114 KA relative to UGCAUGU
24 | B24 | 0.00674 KA relative to UGCAUGU
25 | B25 | 0.00571 KA relative to UGCAUGU
26 | B26 | 0.00255 KA relative to UGCAUGU
27 | B27 | 0.00767 KA relative to UGCAUGU
28 | B28 | 0.0112 KA relative to UGCAUGU
29 | B29 | 0.021 KA relative to UGCAUGU
30 | B30 | 0.0127 KA relative to UGCAUGU
31 | B31 | 0.00677 KA relative to UGCAUGU
